From the supplement of paper PMC8728848
This is one part of the list.

What was measured:
Assay in all cases: glycan array binding signal (z-score within array); higher = stronger binding
Conditions in all cases: glycan notation: IUPAC condensed, linker removed
[1] = molecular target: 3dGal(b1-3)[Fuc(a1-4)]Glc
How it was run: (§1)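 Glycan array data were curated from 3228 arrays in the Consortium for Functional Glycomics database and kept only where the protein sequence was available. Glycan names were converted to IUPAC-condensed notation, and columns mapping to the same glycan were averaged. The binding signal is a within-array Z-score, averaged across arrays of the same protein sequence at different concentrations or buffers and across linkers. Negative Z-scores can be read as non-binding.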

3dGal(b1-4)Glc = molecular target: 3dGal(b1-4)Glc
How it was run: as §1

[2] = molecular target: 4d8dNeu5Ac(a2-3)Gal(b1-4)Glc
How it was run: as §1

[3] = molecular target: 4dNeu5Ac(a2-3)Gal(b1-4)Glc
How it was run: as §1

[4] = molecular target: 7dNeu5Ac(a2-3)Gal(b1-4)Glc
How it was run: as §1

[5] = molecular target: 8dNeu5Ac(a2-3)Gal(b1-4)Glc
How it was run: as §1

[6] = molecular target: 9dNeu5Ac(a2-3)Gal(b1-4)Glc
How it was run: as §1

[7] = molecular target: Ara(a1-5)Ara(a1-5)Ara(a1-5)Ara(a1-5)Ara(a1-5)Ara
How it was run: as §1

[8] = molecular target: Ara(a1-5)Ara(a1-5)Ara(a1-5)Ara(a1-5)Ara(a1-5)Ara(a1-5)Ara
How it was run: as §1

Fuc(a1-2)Gal = molecular target: Fuc(a1-2)Gal
How it was run: as §1

[9] = molecular target: Fuc(a1-2)Gal(b1-3)GlcNAc(b1-3)Gal(b1-4)Glc
How it was run: as §1

[10] = molecular target: Fuc(a1-2)Gal(b1-3)GlcNAc(b1-3)[Fuc(a1-3)[Gal(b1-4)]GlcNAc(b1-6)]Gal(b1-4)Glc
How it was run: as §1

[11] = molecular target: Fuc(a1-2)Gal(b1-3)[Fuc(a1-4)]GlcNAc(b1-3)Gal(b1-4)Glc
How it was run: as §1

[12] = molecular target: Fuc(a1-2)Gal(b1-3)[Fuc(a1-4)]GlcNAc(b1-3)Gal(b1-4)[Fuc(a1-3)]GlcNAc(b1-3)Gal(b1-4)Glc
How it was run: as §1

[13] = molecular target: Fuc(a1-2)Gal(b1-3)[Fuc(a1-4)]GlcNAc(b1-3)[Fuc(a1-2)]Gal(b1-4)Glc
How it was run: as §1

[14] = molecular target: Fuc(a1-2)Gal(b1-3)[Fuc(a1-4)]GlcNAc(b1-3)[Fuc(a1-3)[Gal(b1-4)]GlcNAc(b1-6)]Gal(b1-4)Glc
How it was run: as §1

[15] = molecular target: Fuc(a1-2)Gal(b1-3)[Fuc(a1-4)]GlcNAc(b1-3)[Gal(b1-4)GlcNAc(b1-6)]Gal(b1-4)Glc
How it was run: as §1

[16] = molecular target: Fuc(a1-2)Gal(b1-4)[Fuc(a1-3)]GlcNAc(b1-3)Gal(b1-4)Glc
How it was run: as §1

[17] = molecular target: Fuc(a1-2)Gal(b1-4)[Fuc(a1-3)]GlcNAc(b1-3)[Fuc(a1-2)]Gal(b1-4)Glc
How it was run: as §1

Fuc(a1-2)[Gal(a1-3)]Gal = molecular target: Fuc(a1-2)[Gal(a1-3)]Gal
How it was run: as §1

[18] = molecular target: Fuc(a1-2)[Gal(a1-3)]Gal(b1-4)GlcNAc(b1-3)Gal(b1-4)Glc
How it was run: as §1

[19] = molecular target: Fuc(a1-2)[GalNAc(a1-3)]Gal
How it was run: as §1

[20] = molecular target: Fuc(a1-2)[GalNAc(a1-3)]Gal(b1-3)GlcNAc(b1-3)Gal(b1-4)Glc
How it was run: as §1

[21] = molecular target: Fuc(a1-2)[GalNAc(a1-3)]Gal(b1-3)[Fuc(a1-4)]GlcNAc(b1-3)Gal(b1-4)Glc
How it was run: as §1

[22] = molecular target: Fuc(a1-2)[Neu5Ac(bond)]Gal(b1-3)GlcNAc(b1-3)Gal(b1-4)Glc
How it was run: as §1

Fuc(a1-3)GlcNAc6S = molecular target: Fuc(a1-3)GlcNAc6S
How it was run: as §1

[23] = molecular target: Fuc(a1-3)[3dGal(b1-4)]Glc
How it was run: as §1

[24] = molecular target: Fuc(a1-3)[3dGal(b1-4)]GlcNAc(b1-3)Gal
How it was run: as §1

Fuc(a1-3)[Gal(b1-4)]Glc = molecular target: Fuc(a1-3)[Gal(b1-4)]Glc
How it was run: as §1

[25] = molecular target: Fuc(a1-3)[Gal(b1-4)]GlcNAc
How it was run: as §1

[26] = molecular target: Fuc(a1-3)[Gal(b1-4)]GlcNAc(b1-3)Gal(b1-4)Glc
How it was run: as §1

[27] = molecular target: Fuc(a1-3)[Gal(b1-4)]GlcNAc(b1-3)Gal(b1-4)[Fuc(a1-3)]Glc
How it was run: as §1

[28] = molecular target: Fuc(a1-3)[Gal(b1-4)]GlcNAc(b1-3)[Fuc(a1-2)]Gal(b1-4)Glc
How it was run: as §1

[29] = molecular target: Fuc(a1-3)[Gal(b1-4)]GlcNAc(b1-3)[Fuc(a1-3)[Gal(b1-4)]GlcNAc(b1-6)]Gal(b1-4)Glc
How it was run: as §1

[30] = molecular target: Fuc(a1-3)[Gal3S(b1-4)]Glc
How it was run: as §1

[31] = molecular target: Fuc(a1-3)[Gal3S(b1-4)]GlcNAc
How it was run: as §1

[32] = molecular target: Fuc(a1-3)[Gal3S(b1-4)]GlcNAc(b1-3)Gal
How it was run: as §1

[33] = molecular target: Fuc(a1-3)[Gal3S(b1-4)]GlcNAc(b1-3)Gal(b1-4)Glc
How it was run: as §1

[34] = molecular target: Fuc(a1-3)[Gal3S(b1-4)]GlcNAc6S(b1-3)Gal(b1-4)Glc
How it was run: as §1

[35] = molecular target: Fuc(a1-3)[Gal6S(b1-4)]GlcNAc(b1-3)Gal(b1-4)Glc
How it was run: as §1

Fuc(a1-6)GlcNAc = molecular target: Fuc(a1-6)GlcNAc
How it was run: as §1

Gal(a1-4)Gal(b1-4)Glc = molecular target: Gal(a1-4)Gal(b1-4)Glc
How it was run: as §1

Gal(a1-4)Gal(b1-4)GlcNAc = molecular target: Gal(a1-4)Gal(b1-4)GlcNAc
How it was run: as §1

Gal(a1-6)Glc = molecular target: Gal(a1-6)Glc
How it was run: as §1

Gal(b1-3)GalNAc = molecular target: Gal(b1-3)GalNAc
How it was run: as §1

[36] = molecular target: Gal(b1-3)GalNAc(b1-4)Gal(b1-4)Glc
How it was run: as §1

[37] = molecular target: Gal(b1-3)GalNAc(b1-4)Gal3S(b1-4)Glc
How it was run: as §1

[38] = molecular target: Gal(b1-3)GalNAc(b1-4)[Neu5Ac(a2-3)]Gal(b1-4)Glc
How it was run: as §1

[39] = molecular target: Gal(b1-3)GalNAc(b1-4)[Neu5Gc(a2-3)]Gal(b1-4)Glc
How it was run: as §1

Gal(b1-3)GlcNAc = molecular target: Gal(b1-3)GlcNAc
How it was run: as §1

[40] = molecular target: Gal(b1-3)GlcNAc(b1-3)Gal(b1-4)Glc
How it was run: as §1

[41] = molecular target: Gal(b1-3)GlcNAc(b1-3)Gal(b1-4)GlcNAc(b1-3)Gal(b1-4)Glc
How it was run: as §1

[42] = molecular target: Gal(b1-3)GlcNAc(b1-3)Gal(b1-4)GlcNAc(b1-6)[Gal(b1-3)GlcNAc(b1-3)]Gal(b1-4)Glc
How it was run: as §1

[43] = molecular target: Gal(b1-3)GlcNAc(b1-3)Gal(b1-4)[Fuc(a1-3)]GlcNAc(b1-3)Gal(b1-4)Glc
How it was run: as §1

[44] = molecular target: Gal(b1-3)GlcNAc(b1-3)Gal(b1-4)[Fuc(a1-3)]GlcNAc(b1-6)[Gal(b1-3)GlcNAc(b1-3)]Gal(b1-4)Glc
How it was run: as §1

[45] = molecular target: Gal(b1-3)GlcNAc(b1-3)[Fuc(a1-3)[Gal(b1-4)]GlcNAc(b1-6)]Gal(b1-4)Glc
How it was run: as §1

[46] = molecular target: Gal(b1-3)GlcNAc(b1-3)[Fuc(a1-3)[Gal(b1-4)]GlcNAc(b1-6)]Gal(b1-4)]GlcNAc(b1-6)[Gal(b1-4)]GlcNAc(b1-3)]Gal(b1-4)Glc
How it was run: as §1

[47] = molecular target: Gal(b1-3)GlcNAc(b1-3)[Gal(b1-4)GlcNAc(b1-6)]Gal(b1-4)Glc
How it was run: as §1

[48] = molecular target: Gal(b1-3)GlcNAc(b1-3)[Gal(b1-4)GlcNAc(b1-6)]Gal(b1-4)GlcNAc(b1-6)[Gal(b1-3)GlcNAc(b1-3)]Gal(b1-4)Glc
How it was run: as §1

[49] = molecular target: Gal(b1-3)[Fuc(a1-4)]GlcNAc
How it was run: as §1

B1: ZG16p (Homo sapiens), O60844 (protein)
chain: ARSSSYSGEYGGGGGKRFSHSGNQLDGPITALRVRVNTYYIVGLQVRYGKVWSDYVGGRNGDLEEIFLHPGESVIQVSGKYKWYLKKLLFVTDKGRYLSFGKDSGTSFNAVPLHPNTVLRFISGRSGSLIDAIGLHWDVYPSSCSRC
glycan array binding signal (z-score) [1]: -0.327
glycan array binding signal (z-score) (3dGal(b1-4)Glc): -0.064
glycan array binding signal (z-score) [2]: -0.328
glycan array binding signal (z-score) [3]: -0.219
glycan array binding signal (z-score) [4]: -0.328
glycan array binding signal (z-score) [5]: -0.328
glycan array binding signal (z-score) [6]: -0.299
glycan array binding signal (z-score) [7]: -0.328
glycan array binding signal (z-score) [8]: -0.328
glycan array binding signal (z-score) (Fuc(a1-2)Gal): -0.287
glycan array binding signal (z-score) [9]: -0.328
glycan array binding signal (z-score) [10]: -0.328
glycan array binding signal (z-score) [11]: -0.328
glycan array binding signal (z-score) [12]: -0.328
glycan array binding signal (z-score) [13]: -0.328
glycan array binding signal (z-score) [14]: -0.328
glycan array binding signal (z-score) [15]: -0.328
glycan array binding signal (z-score) [16]: -0.328
glycan array binding signal (z-score) [17]: -0.328
glycan array binding signal (z-score) (Fuc(a1-2)[Gal(a1-3)]Gal): -0.213
glycan array binding signal (z-score) [18]: -0.237
glycan array binding signal (z-score) [19]: -0.249
glycan array binding signal (z-score) [20]: -0.328
glycan array binding signal (z-score) [21]: -0.328
glycan array binding signal (z-score) [22]: -0.259
glycan array binding signal (z-score) (Fuc(a1-3)GlcNAc6S): -0.123
glycan array binding signal (z-score) [23]: -0.025
glycan array binding signal (z-score) [24]: -0.229
glycan array binding signal (z-score) (Fuc(a1-3)[Gal(b1-4)]Glc): -0.057
glycan array binding signal (z-score) [25]: -0.031
glycan array binding signal (z-score) [26]: -0.178
glycan array binding signal (z-score) [27]: -0.328
glycan array binding signal (z-score) [28]: -0.328
glycan array binding signal (z-score) [29]: -0.328
glycan array binding signal (z-score) [30]: -0.259
glycan array binding signal (z-score) [31]: -0.328
glycan array binding signal (z-score) [32]: -0.328
glycan array binding signal (z-score) [33]: -0.328
glycan array binding signal (z-score) [34]: -0.274
glycan array binding signal (z-score) [35]: -0.328
glycan array binding signal (z-score) (Fuc(a1-6)GlcNAc): -0.305
glycan array binding signal (z-score) (Gal(a1-4)Gal(b1-4)Glc): -0.109
glycan array binding signal (z-score) (Gal(a1-4)Gal(b1-4)GlcNAc): -0.328
glycan array binding signal (z-score) (Gal(a1-6)Glc): -0.272
glycan array binding signal (z-score) (Gal(b1-3)GalNAc): -0.177
glycan array binding signal (z-score) [36]: -0.328
glycan array binding signal (z-score) [37]: -0.328
glycan array binding signal (z-score) [38]: -0.328
glycan array binding signal (z-score) [39]: -0.328
glycan array binding signal (z-score) (Gal(b1-3)GlcNAc): 0.304
glycan array binding signal (z-score) [40]: -0.328
glycan array binding signal (z-score) [41]: -0.328
glycan array binding signal (z-score) [42]: -0.328
glycan array binding signal (z-score) [43]: -0.328
glycan array binding signal (z-score) [44]: -0.328
glycan array binding signal (z-score) [45]: -0.328
glycan array binding signal (z-score) [46]: -0.328
glycan array binding signal (z-score) [47]: -0.232
glycan array binding signal (z-score) [48]: -0.328
glycan array binding signal (z-score) [49]: -0.215
